# The other results are listed elsewhere or left out. Values come from read counts of a selection and are noisy.
# Tested on: SARS-CoV-2 3CLpro (nsp5)
# Assay: substrate phage enrichment score (protease-eluted vs HEPES control, +1 offset) (ratio); higher = better cleaved substrate
# Settings: selection round: 3; protease elution time: 0.5 h
# Experimental: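 Random heptapeptide substrate phage display (M13 pIII fusion, heptapeptide between an N-terminal biotinylated AviTag GLNDIFEAQKIEWHE and pIII; phages immobilised on streptavidin) eluted by cleavage with 50 nM protease in 20 mM HEPES at 37 °C. Selected phages were NGS sequenced, and the enrichment score is (reads in protease sample + 1)/(reads in HEPES blank-selection control + 1).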
row,Substance,substrate phage enrichment score
1,RSTQQAA,6.5
2,QQTLRTQ,1.2
3,PVQCHLQ,5.5
4,VNFQGGS,2.62
5,DSKQKAN,6
6,ASGQSMM,30
7,IPHCANG,> 21
8,PCYAGCT,> 22
9,LPKLQST,> 44
10,QSFTHCR,5.67
11,PAGSNHV,6.5
12,RRWATLQ,> 21
13,SWSSRTE,1
14,DQALKFW,> 40
15,CTAAHHH,0.774
16,DPSKAWR,3.43
17,TRGEPQR,> 29
18,GKAAHHH,0.457
19,ANTIKAR,0.786
20,GALRCRD,0.571
21,GDHNKAQ,2.36
22,NDGSVGH,2.25
23,YLNSKTP,> 30
24,EPTQCRA,2.28
25,THPVASD,> 45

row,Substance,substrate phage enrichment score
1,SSAREGC,1.33
2,SPGSKTL,> 33
3,IKLQSYD,> 42
4,SPKNHMQ,> 21
5,VNKEIVG,1
6,TKKTPTY,4.75
7,RASQVTR,4.6
8,LNPHLQS,> 34
9,QSWGISQ,> 24
10,VAKGSQD,> 26
11,HTAAHHH,1.77
12,TAAAHHH,1.06
13,TRWCSIA,> 21
14,ETGILQS,> 28
15,SILECRG,> 31
16,NGAAHHH,1.69
17,RQTYIYG,> 417
18,NRGAKLQ,> 30
19,VANLQAG,74
20,RDTRPVF,> 25
21,LCTLQGG,> 28
22,RADAILQ,> 201
23,TSLTPRQ,5.15
24,QQTTKRG,1.29
25,GSPAAHH,0.5

row,Substance,substrate phage enrichment score
1,HRCKAGF,1.75
2,AVDQPKQ,1.9
3,QTCLQGG,> 32
4,CGAAHHH,0.5
5,LIDSAQR,> 27
6,RQDSRFG,> 21
7,QTAAHHH,0.857
8,SHAAHHH,0.591
9,LKDNSQQ,> 26
10,AAQTFPA,0.312
11,LYFRGGS,0.724
12,TAAHHHH,1.11
13,SDTARGS,> 23
14,SAAEHHH,0.684
15,WNHRDTR,> 30
16,ETHGPFG,> 105
17,RKQTRLQ,> 122
18,SSPQKWP,2.9
19,SSLTGIG,17.5
20,RQPVGIP,> 23
21,MSIHATP,1
22,ASTGYKS,12
23,TARLQSA,> 37
24,ELSGRKH,1
25,QASRKSD,> 23

row,Substance,substrate phage enrichment score
1,PPGRATC,2.14
2,CTENRTR,0.692
3,VVKTGVH,> 57
4,ARPSQLM,> 21
5,DTLSELQ,> 28
6,SGVPSAR,18.5
7,RQESVDP,> 28
8,CASYNSS,> 22
9,AAAHHNH,1
10,QQYFQGG,0.636
11,GTTRLQA,156
12,YASSSGR,1.09
13,SAAAHQH,1.13
14,YPQTRLQ,> 47
15,AADLNNR,1
16,KATKPRP,4.17
17,QCFQGGS,4.5
18,GGAAAHH,0.571
19,HTDYVTE,11
20,RVPAKLQ,> 42
21,RRRCSLM,126
22,RKSSKVC,> 21
23,AAAQHHH,1.17
24,TVGGLIC,> 21
25,CKAAHHH,2.07

row,Substance,substrate phage enrichment score
1,ALSPPGP,> 21
2,QRSSTPA,0.389
3,CRLSTRD,2.62
4,NRHLARP,> 34
5,GIAAAHH,0.5
6,LQSFPAA,> 21
7,AYDSEFS,2.29
8,LCEQQML,2.43
9,KQRTTSP,> 28
10,SAAPQQH,2.14
11,LSSEQLL,0.714
12,KPKPCLH,1.88
13,MKPTVPE,> 50
14,CNHRELL,0.294
15,RACGNRS,1.75
16,LNVSELK,1.2
17,VELQSDR,> 45
18,QTSRWPT,11
19,RSCKEQT,> 29
20,VKLRNPN,1.05
21,VAQLQAR,> 21
22,ITERDMR,1.08
23,DNFLEMN,6.6
24,NVLEPTE,1.36
25,SGPCKLQ,> 171

row,Substance,substrate phage enrichment score
1,EPQWSNP,4.86
2,CGSAAAH,1.67
3,VESSKLQ,> 23
4,REQTRAL,12
5,KAMQGTT,12.5
6,TGVLQRK,4.13
7,KSAAHHH,2.91
8,EKVPRLQ,> 104
9,ALRDAPL,> 28
10,ASCATPV,2.57
11,RAPACQD,1.22
12,KAAHHHH,0.629
13,TGSGAAE,1.18
14,SDGTQEQ,2.83
15,QHVTSMP,0.211
16,NRTPYIM,20.5
17,SPSCSTQ,1.09
18,PCHGNYR,> 45
19,IQGGSAA,1.65
20,RHMTTDS,> 55
21,RNSRLQA,> 70
22,LGMCTLQ,> 191
23,GVWVQCH,0.3
24,ALCPRAD,1.14
25,LATDAGW,12

row,Substance,substrate phage enrichment score
1,ACGPVAS,> 21
2,TPSQRCL,8.33
3,GGSAAAH,0.772
4,TGTVMSP,> 32
5,VVRPHII,1.05
6,DGTVLQS,> 23
7,GMAAHHH,1.06
8,CREASAQ,5
9,QLPMLQA,> 113
10,LCPTKHT,2.33
11,VSAAAHH,0.711
12,AEAAHHH,0.889
13,EARTNHR,2.2
14,PSTVIPG,3.14
15,TCTTPMS,4.6
16,DERVWTN,6.33
17,SNWTVCR,8.75
18,RCHLQGG,> 77
19,AAAHQHH,0.902
20,RCHSLIQ,> 29
21,DVGDLSS,> 27
22,RRSAVLH,> 36
23,VSYLQSC,> 48
24,SHSVPEL,0.333
25,LNPHSHA,> 32

row,Substance,substrate phage enrichment score
1,EPQASGS,5.5
2,VARNCTR,3.83
3,KQETYSH,> 31
4,WYFQGGS,0.7
5,SKCCLQS,> 29
6,PVFPPEM,> 21
7,EAPERGL,> 38
8,GLKRGSC,> 38
9,SQGPSTD,9
10,SRRGPNN,3.67
11,PVEATCR,> 22
12,SIFRVVV,1
13,CIFRVVV,1.75
14,GTSTKLQ,> 26
15,MHLNGSC,2.57
16,PEGTLLQ,> 22
17,PQSRKDR,> 34
18,LSNAKQG,> 24
19,KSLLQSG,> 28
20,TYSITQS,> 40
21,SKPLSTS,2.71
22,AVAHHHH,0.667
23,ARTSELQ,> 130
24,AYFQGGS,4.04
25,RRDEQLP,> 25

row,Substance,substrate phage enrichment score
1,SAAAHKH,1.06
2,AVISWPG,3.85
3,SCPLGSR,1.67
4,EQNFQGG,9
5,LSLSLPS,0.81
6,KRSTTLI,> 34
7,NPHIEPR,10
8,KDVVLQA,> 26
9,PLSAQLQ,> 53
10,AMTACGK,> 92
11,LIKPTMQ,> 23
12,DLYFQGG,0.4
13,VNAAAHH,2.51
14,EIQSGPG,7.14
15,ARSTLQS,> 241
16,HVRATLQ,> 50
17,GPQKHSV,> 26
18,GHDEILQ,1.69
19,RERKEPT,1.27
20,NHARMTD,13.5
21,PNMPASR,4.89
22,RAPVLQR,13.5
23,RCVPKLQ,> 26
24,TNVLCTK,0.143
25,LTLERTG,1.09

row,Substance,substrate phage enrichment score
1,SSAAAHH,0.854
2,SPECLRD,> 36
3,THGRPMR,2.93
4,KGSLNDR,1.94
5,CNECAEW,3.07
6,AREREAV,1.75
7,DQPVRLQ,> 32
8,YSQGWLQ,> 43
9,TRYNPAL,12
10,ESTLQGN,17
11,AHRTQHR,0.562
12,SELQSGA,8.33
13,GAAHHHH,1.74
14,RPPSELG,1
15,VPKTKLQ,> 44
16,ESSRVVS,1.59
17,CLQPIKG,1.88
18,RPSCRDR,6.75
19,RHPYNAL,> 24
20,TPPVRLQ,8.17
21,QRQSHSI,1.88
22,PHVSVMK,5.4
23,VQDNTAA,0.0769
24,YGAAHHH,0.344
25,QTRLQCS,> 28

row,Substance,substrate phage enrichment score
1,ECDVQWY,1
2,AAAKLQS,101
3,KQLDSCR,> 98
4,RNFQGGS,1
5,IKYDLKQ,1.44
6,KCKCTLQ,> 63
7,ERLNNCR,0.0492
8,ASRPGIF,12.3
9,VQLSHPK,1.1
10,GAAAHHQ,0.353
11,TRRTTKC,3.62
12,TVLQAHG,101
13,GCRLQSG,> 73
14,TEQAERL,2.25
15,LKSSDLQ,9
16,TPVQLRS,> 29
17,YSENRSR,0.6
18,TGCRTVP,0.154
19,FDPWDVN,8.8
20,DCTPDSK,1.5
21,MHPEWGA,1.8
22,RTWDANT,1.39
23,CGHAHHH,> 32
24,KTFCDLQ,11
25,ICGPASA,> 22

row,Substance,substrate phage enrichment score
1,RRSTKLQ,2.29
2,TKAAHHH,1.26
3,PPLSPLR,4.6
4,SGSAAAH,0.469
5,ATERRNT,0.522
6,CALNHGQ,> 21
7,DCSQGTN,1.8
8,VVVRGLR,6.33
9,ATAAHHH,1
10,TRSHPSE,0.833
11,WVSKGCC,> 24
12,RNEKMRS,> 29
13,GLAAHHH,1
14,REAAHHH,1.27
15,CGPSWEV,17
16,ADFQGGS,2.88
17,NTRSGMT,> 22
18,LHTGEVS,> 24
19,IRCTAVQ,> 32
20,TLTGGAR,1.08
21,YKLNSPG,15.5
22,VCLQAVC,186
23,SAAAHHY,1.94
24,PCARRSM,> 42
25,KRMETCG,> 83

row,Substance,substrate phage enrichment score
1,LKASVLQ,> 34
2,EITVEPN,1.64
3,YFQGGSA,0.734
4,ERIEIED,7.33
5,TRHTRCG,0.0488
6,SGSSRGM,4.3
7,SACSGMK,0.087
8,HKNHNCR,10.5
9,DAERFCR,> 22
10,LCTVPRQ,> 60
11,RTPATIH,2.25
12,VDGGLER,1.2
13,CPRQILS,> 44
14,PAAAHHH,0.968
15,LEAAHHH,0.763
16,PGADDHI,10.7
17,AVLRQGT,> 21
18,RVHLQCG,29.5
19,TRQGPSE,1.83
20,DATRAQT,8.33
21,SQAGPSG,1.36
22,EYPFTVP,1.81
23,KHIKGDR,2.22
24,FKPTVTT,2
25,QQYSILG,> 26

row,Substance,substrate phage enrichment score
1,WPMCESH,> 23
2,LQEEVCI,> 28
3,QVHVLER,17.5
4,PDKLKDG,> 22
5,CRAAHHH,0.872
6,RKNACIM,> 23
7,RGTTTLQ,> 27
8,ETTGCPR,3.33
9,SAAAHHQ,1.03
10,PERCNAR,0.143
11,CPTTHHA,13.5
12,ATEAFQT,2.11
13,TQSLIQS,> 32
14,CTHSRKV,2
15,AIGGYVC,4
16,VLEKNTL,2.42
17,LYIQGGS,1.82
18,QPTTRHD,3.3
19,PTVTHLQ,> 31
20,SILQSAK,> 39
21,RHCLSCL,10.8
22,PLPNFQG,> 31
23,WKAAHHH,0.196
24,QGFDETT,> 27
25,YPQVELR,10

row,Substance,substrate phage enrichment score
1,THLQAKC,> 154
2,LLHEDFI,> 24
3,SGSCWPA,> 30
4,AWRPGES,> 28
5,VPDTFQP,0.6
6,RNPTQLN,> 39
7,DSSLILQ,15
8,VHLPVPT,11.5
9,SRKPGAR,0.08
10,AVSAPGN,3.21
11,FGAAHHH,0.5
12,SRGPCLM,> 36
13,PWDSKVY,0.8
14,RVEPFPR,0.542
15,LGGIRLH,2.36
16,VQHHMMG,> 42
17,PTRTKGQ,> 22

# Source: the supplement of paper PMC10185492
